# ± gives the standard deviation of the averaged measurements. This is one part of the list.
# Test system: PfAP2-LT AP2 domain (GST-tagged)
# Test: gcPBM binding intensity (ln(normalized median fluorescence intensity)); higher = stronger DNA binding
# Procedure, shortened: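 DNA-binding domains from P. falciparum, fused to GST and produced in E. coli, were put on an Agilent 4 × 180k double-stranded probe array for 1 h in 1× PBS holding 1% milk, 0.2 mg/ml BSA, 0.5% salmon testes DNA and 0.03% Triton X-100. Probes were primer-extended, 36 bp long and drawn from intergenic genomic regions, with negative controls included. After Alexa488 anti-GST antibody detection and a 488 nm scan, binding intensity was set as the highest Masliner-normalised natural-log median intensity across replicate spots of either probe orientation.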
row,Sequence,gcPBM binding intensity (ln)
1,TTATTCCTATTTGGATGTACATTTTAATATAAACAT [XGTACX_site4386],8.71 ± 0.4
2,TTCAATTTTACATGTAGTACATAAATTATACACAAA [XGTACX_site4946],8.45 ± 0.32
3,TTTTTTAATTTTACATGTACATACAGGTTTTTTTTT [XGTACX_site4539],8.76 ± 0.45
4,TAATAATAGTAAATATGTACATATATATATATATAG [XGTACX_site4602],9.11 ± 0.38
5,TAAAATTTACGGTCTTGTTGCGCAACCAACATTGTC [CACACA_negctrl_site1175],9.08 ± 0.44
6,GTTTTTTTTTTTTTGGTGCGTCATTTTCAAAAGAAG [GTGCAC_site9745],8.57 ± 0.41
7,ATTACATATGTCGCTTGTACGCATAATTTTTTTATA [XGTACX_site5782],8.99 ± 0.38
8,ATTTTTTTATTTTGAAGTACATAAACTTTATATATA [XGTACX_site1746],8.43 ± 0.39
9,ATTTAAAAAAAAAGACGTACATTTATATAGAATCCT [XGTACX_site6457],8.53 ± 0.47
10,TACACGCATAAACACACACACACACCCATATATATA [CACACA_site8114],10.24 ± 0.05
11,TTTATATTTAAAGAAACATGCATTTATCATATATAC [TGCATGCA_site173],8.58 ± 0.44
12,CAATTTATAAAGAAAACACACATATACCTATATACA [CACACA_site6710],8.86 ± 0.38
13,TCTATAATATTTTTCACACACCATTTCCTTAAACAC [CACACA_site6747],9.11 ± 0.45
14,AAAAAAATAAAATACAAAATGGCTATACAAAATAAA [GTGCAC_negctrl_site535],8.85 ± 0.48
15,TTTGTTGACGAACACACACACATACATATTTATATA [CACACA_site7141],9.47 ± 0.32
16,TTTTCCTTTCACAATGGTACACAAATATACATGCAA [XGTACX_site7244],8.64 ± 0.38
17,ATTTTTTTTCGTAATTGTTCTTAATGTTGAATTATA [CACACA_negctrl_site1135],8.7 ± 0.5
18,TAGTAATATGTATCCATACACACATACATTTTATTT [CACACA_site873],9.04 ± 0.4
19,GTATAGTACAAATAAGTGCATATAAAAGAAATACAG,9.21 ± 0.45
20,ATAAATTTACATTTTTTTTTTTTTTTTTTTTTTTTT [GTGCAC_negctrl_site689],8.63 ± 0.13
21,AAAAAATATACATATTGTACATTTTTTATTAACACA [XGTACX_site6415],8.53 ± 0.54
22,TAATTTTTATTCAGTTCACACACGCTTTAATATTAT [CACACA_site9147],9.13 ± 0.45
23,ATTACCAAAAAAAGGTGTACAAATATAATTATGAAA [XGTACX_site44],8.79 ± 0.6

row,Sequence,gcPBM binding intensity (ln)
1,GGAATAACCGGACACACACACACATATATATATATA [CACACA_site5874],10.39 ± 0.057
2,ATTTAAAATAGAAGTTATATTTATATGGGTGAAAAA [GTGCAC_negctrl_site296],8.29 ± 0.48
3,TTATAAATAAAAAGAGTGCAATTATAAATATATATA,8.53 ± 0.57
4,AAAAAAATACAAATATGTACACATATATATTTAAAA [XGTACX_site4729],8.83 ± 0.42
5,AAATAAAATATGAACAGTACTTTTGATATAACCATT [XGTACX_site1873],8.81 ± 0.45
6,TCTAATCTGGAGAAAAGTACATAGTATCTGGTAACA [XGTACX_site2540],8.62 ± 0.49
7,TTATTCATACAATATCGTACATATATATATATATAT [XGTACX_site1185],9.505 ± 0.035
8,ATCTTATATATATGTGTGCACGTATATATAAGCAAT [GTGCAC_site9933],9.15 ± 0.27
9,GTACACCTATAATATACACACAACAAATATGCACAT [CACACA_site6603],9.28 ± 0.26
10,ATTATATATATATATACACACACATATATATATATA [CACACA_site8373],9.47 ± 0.25
11,CACAAATATACAAATACACACAAATATACTCATATA [CACACA_site5339],9.27 ± 0.39
12,GTACGTTTCTCCAGACTGCACTATACGACTCGTACA [GTGCAC_site9771],9.03 ± 0.43
13,TGTATTCCTTTTTATAGTACAATTTAAAAGTATAAA [XGTACX_site2045],8.13 ± 0.37
14,AGAAAGATGCAAGAAACATGCAAAAAAAAAATTTCT [TGCATGCA_site725],8.84 ± 0.45
15,ATTTTTAATGGATAAGTGCATAATATTATGATGCAA,8.63 ± 0.43
16,TATGTAATAAAATATACACACAATATACTTATATAT [CACACA_site3682],8.98 ± 0.33
17,AGCCACGGGTTATATACACACATAATCAAATAAAAT [CACACA_site6117],9.12 ± 0.57
18,AAAAAATTATATAATAATAGAACTATACATTTTATT [GTGCAC_negctrl_site645],8.44 ± 0.47
19,ACATAATATATATATTGTACAAATATATTATTGTTA [XGTACX_site3385],8.7 ± 0.35
20,AGCTATATAAATAATACATGCATTGTTCAGGTATTT [TGCATGCA_site964],8.88 ± 0.4
21,ATTTATAATATTCAAGTGCATATATATTTTTTACTT,8.85 ± 0.52
22,TAAAGAAATTCTTCATGTACTTATTATTTCTCTTTT [XGTACX_site6817],8.6 ± 0.57
23,GTTATACAAAATAATACATGCATGTCCTACATATAT [TGCATGCA_site320],9.35 ± 0.59

row,Sequence,gcPBM binding intensity (ln)
1,TATGGAATAAATTTATCCATACATCTTATAACATAT [XGTACX_negctrl_site500],8.54 ± 0.35
2,TAGTTCCTCAAAAATTTCCTTTGTCATTTTATTCAC [GTGCAC_negctrl_site20],8.62 ± 0.53
3,TACATAAATTAATAGTCACACACGTATTTTTTATAT [CACACA_site8806],8.99 ± 0.42
4,TACATATTGCACAAATAAAAAAGAACAAAAAAAAAA [CACACA_negctrl_site1200],8.63 ± 0.49
5,GAATTTCGATATATGTGTACGCATTTGTATTATAGG [XGTACX_site6332],9.03 ± 0.35
6,ATAATATTTCTTACCTTTGGATGTTCTAATTTTTTT [CACACA_negctrl_site1317],8.86 ± 0.49
7,ATATATATATATATATGTACATATATTCGATTATTA [XGTACX_site557],9.695 ± 0.035
8,AAAAATAACATATAAACACACATATATATATATATA [CACACA_site3802],9.825 ± 0.0071
9,TACTTTATATTATATATATATATATATATATATATA [CACACA_negctrl_site1765],9.2 ± 0.16
10,TATATAAAATAATAATGTACTCATTAAAATTATAGA [XGTACX_site4507],8.44 ± 0.5
11,ATGTATCCAATAGGAGTGCATAATTCTATTAACACC,8.91 ± 0.42
12,AAAGAAAAAAAAAAAAAAAAAAAAAAAATTATACAT [CACACA_negctrl_site7],8.45 ± 0.64
13,AATTAAATATTATAAACACACATATATATTATTTTT [CACACA_site865],8.71 ± 0.36
14,AAACGAACATATAAATGTACATATATATACATATAT [XGTACX_site8086],8.95 ± 0.4
15,TATGTATTAAATTTTACACACATGATTCTCTATATA [CACACA_site2298],9.13 ± 0.41
16,ATTGTAAATATAGAAGTGCAAAAGGGTATGAAATGA,9.02 ± 0.49
17,TACAAAAAAAATGTATTTAGGACATATATATGTTTA [XGTACX_negctrl_site455],8.48 ± 0.43
18,TACATAAAATATATCACACATATAATATATATATAT [CACACA_site5834],8.86 ± 0.35
19,AAAAAAAAAAAAAAATATAAATATATATATATATAT [GTGCAC_negctrl_site28],9.1 ± 0.12
20,AGTGTAATTTTCCACTGTACTTTTCTTGTATATAAT [XGTACX_site4201],8.86 ± 0.4
21,ATATATATTAATATTTGTACATAAAATTATTTCAAT [XGTACX_site5364],8.55 ± 0.39
22,AAAGTAACACACTAATATTTTAACAAATAATATATA [GTGCAC_negctrl_site132],8.79 ± 0.48
23,AATACATTTATGAGCTGTACACATTTATTTGAGCTA [XGTACX_site7695],8.74 ± 0.3

row,Sequence,gcPBM binding intensity (ln)
1,ACAAAATATACAAAATGTACAAAATATACAAAATGT [XGTACX_site6467],9.12 ± 0.43
2,TTATATCATTTTCCTGCACACATAAATTTATATAAT [CACACA_site8257],9.01 ± 0.37
3,CATATGTATTTATTCACACATATATATATATATATA [CACACA_site4207],9.74 ± 0.12
4,TATACAGATAAATACACACACACATATATATATATA [CACACA_site4845],10.3 ± 0.25
5,TTATTCTAAAAGTGTTTGCACTTTTATAATCATATA [GTGCAC_site9929],8.43 ± 0.55
6,TACCTTTCTTATTATTGAAAAGGAATATATAAATAG [CACACA_negctrl_site272],8.18 ± 0.28
7,ATACAAAAAATCACATGTACATATTCTTAAATGGTA [XGTACX_site8502],8.77 ± 0.46
8,AATAATAATTTGAATACACACAATAATATATATATA [CACACA_site2059],8.9 ± 0.38
9,ATATATAAATATATATGTACACACATATACATGTTG [XGTACX_site6653],9.2 ± 0.38
10,AATTATTCTATATATTGTACATGTTTGTTTTTTTTT [XGTACX_site3130],9.03 ± 0.46
11,TGTTTAATCACATGTTTGCACTTTCCTTTTGTAAAT [GTGCAC_site9893],9.06 ± 0.47
12,TGATTCTGTCATGGTGCACACCAGAACCATTATAAA [CACACA_site1965],8.65 ± 0.24
13,TCTTAAAATCGGAAATGAAATAAAGTTTACAATATG [TGCATGCA_negctrl_site553],8.47 ± 0.55
14,AAAACAAACAGACACACACACATATATATATATATA [CACACA_site3655],10.4 ± 0.24
15,AATGAATAAATAAACACACACACATATATAAATATG [CACACA_site6160],9.78 ± 0.19
16,ATGTTTAATTTTTTTTTGTCCCTATAGAAGTGTCAA [CACACA_negctrl_site1103],8.57 ± 0.52
17,TTTGAGTGCACATACACACAGACATACATTTAAATA [CACACA_site3403],9.07 ± 0.3
18,ATAACCTAATAATACACACACATGAATATATAGAAT [CACACA_site963],9.48 ± 0.29
19,ATATAAATATGTTCTGCACACAAATAAGTGTTTGAA [CACACA_site9291],9.01 ± 0.35
20,TTTAAAATTTTTTTTTTTTTTTTTTTTTTTTTTTAT [TGCATGCA_negctrl_site213],8.04 ± 0.49

# — the supplement of paper PMC11417369
